The whole screen tested about 360,000 compounds, of which about 660 (0.18%) were called active. The shares of active, inactive and inconclusive entries below differ from those in the screen. The call rests on the fitted dose curve; in most records, active means well fitted inhibition curve with a large enough effect; inconclusive means small, poorly fitted or top-dose-only effect; inactive means no such curve, though single readings can be large or run the other way. No potency is given beside an inconclusive call; the fits are too rough.
target: Rap guanine nucleotide exchange factor 4 (Homo sapiens) (UniProt Q8WZA2); test: qHTS for Antagonist of cAMP-regulated guanine nucleotide exchange factor 2 (EPAC2): primary screen; details: EPAC2 GEF exchange of Rap1B-BODIPY-GDP, fluorescence; series mostly up to 114 µM; further: nearly all actives have a fitted effect of over 45% in size
Sequence of UniProt Q8WZA2 (Q8WZA2 whole entry, looked up): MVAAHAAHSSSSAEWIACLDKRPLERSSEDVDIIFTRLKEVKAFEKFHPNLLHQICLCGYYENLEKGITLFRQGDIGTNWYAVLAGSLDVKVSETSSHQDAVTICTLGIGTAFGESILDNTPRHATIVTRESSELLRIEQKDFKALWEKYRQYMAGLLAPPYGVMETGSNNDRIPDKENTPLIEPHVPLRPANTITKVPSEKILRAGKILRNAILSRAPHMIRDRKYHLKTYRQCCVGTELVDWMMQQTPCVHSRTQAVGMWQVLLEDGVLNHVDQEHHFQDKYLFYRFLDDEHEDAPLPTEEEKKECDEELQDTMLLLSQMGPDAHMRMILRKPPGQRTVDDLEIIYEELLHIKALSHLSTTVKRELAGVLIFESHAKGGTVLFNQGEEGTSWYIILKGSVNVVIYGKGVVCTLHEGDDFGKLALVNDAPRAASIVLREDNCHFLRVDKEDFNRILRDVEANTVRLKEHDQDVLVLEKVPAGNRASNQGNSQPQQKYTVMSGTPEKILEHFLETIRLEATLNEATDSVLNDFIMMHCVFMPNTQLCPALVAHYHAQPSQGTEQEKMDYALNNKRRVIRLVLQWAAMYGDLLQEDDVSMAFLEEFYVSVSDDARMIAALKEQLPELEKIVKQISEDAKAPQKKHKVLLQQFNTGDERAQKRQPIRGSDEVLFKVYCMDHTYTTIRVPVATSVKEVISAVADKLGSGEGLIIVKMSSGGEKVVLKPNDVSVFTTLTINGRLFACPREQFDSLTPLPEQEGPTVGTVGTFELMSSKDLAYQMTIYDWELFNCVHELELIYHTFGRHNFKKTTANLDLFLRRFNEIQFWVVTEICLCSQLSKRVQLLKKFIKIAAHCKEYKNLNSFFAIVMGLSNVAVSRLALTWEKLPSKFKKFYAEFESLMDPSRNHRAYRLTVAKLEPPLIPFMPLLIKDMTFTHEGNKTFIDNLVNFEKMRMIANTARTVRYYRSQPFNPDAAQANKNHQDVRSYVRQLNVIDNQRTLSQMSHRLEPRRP
Potency means the concentration at half of the fitted maximal effect; tags describe the fitted curve by direction and shape.

Compound	Potency
O=c1c2cc(-c3ccccc3)sc2ncn1-n1cccc1	inactive
CCCNc1c(NS(=O)(=O)c2ccc(Br)cc2)c(=O)oc2ccccc12	inactive
O=S(=O)(NC1CCCCC1N1CCN(c2ccc(F)cc2)CC1)c1ccccc1 (configuration not stated)	inconclusive [inhibitor, partial curve]
COc1cccc(/C(=N/O)C2CC2c2ccc(Cl)cc2)c1 (configuration not stated)	inconclusive [inhibitor, partial curve]
Cc1ccsc1C=Nc1ccc(O)cc1	active: 50.1 µM
CC1(C(=O)NS(=O)(=O)c2ccc(Cl)cc2)CCN1C(=O)Cc1ccc(-c2ccccc2)cc1 (configuration not stated)	inconclusive [inhibitor, single point]
Cc1cc(N2CCCc3ccccc32)n2ncnc2n1	inconclusive [inhibitor, full curve, poor fit]
CC(C)(C)c1ccc(C(CC(=O)O)NC(=O)CSc2ccccc2)cc1 (configuration not stated)	inconclusive [inhibitor, full curve]
COC(=O)C1=CN(c2c(C)cc(C)cc2C)C(N)=C(C#N)C1c1cccc(F)c1 (configuration not stated)	inconclusive [inhibitor, full curve]
COc1ccc(/C=C(\C#N)C(=O)c2cccn2C)cc1	inconclusive [inhibitor, partial curve]
CCn1c2c(c3cc(Cl)ccc31)CCCC2=O	inconclusive [inhibitor, full curve]
CC1CCN(c2ccc(C=O)o2)CC1	inactive
CCOC(=O)c1oc2ccccc2c1CN1CCN(C)CC1	inactive
COc1ccccc1CC1(C)C(=O)Nc2c(Cl)cccc21 (configuration not stated)	inconclusive [inhibitor, partial curve]
Cc1ccc(C)c(S(=O)(=O)NNC(=O)c2sc(NS(=O)(=O)c3ccccc3)nc2C)c1	inconclusive [inhibitor, full curve, poor fit]
C/C=C/C(=O)N1c2ccc(C)cc2C(C)=CC1(C)C	inconclusive [inhibitor, partial curve]
CCOC(=O)C1=C(C)N=c2s/c(=C\c3ccc(C(=O)O)cc3)c(=O)n2C1c1ccc(OC)cc1OC (configuration not stated)	inconclusive [inhibitor, full curve]
CC(C)(C)NS(=O)(=O)c1ccc(Oc2ncc(C(F)(F)F)cc2Cl)cc1	inconclusive [inhibitor, partial curve]
COc1ccc(Cn2c(O)c(C=Nc3ccccc3C(=O)O)c3ccccc3c2=O)cc1	inconclusive [inhibitor, single point]
CCOC(=O)C1C(O)=CC(=O)CC1c1ccccc1 (configuration not stated)	inactive
CCOc1ccc(S(=O)(=O)Nc2cc(NS(=O)(=O)c3ccc(OCC)cc3)cc(C(=O)O)c2)cc1	inconclusive [inhibitor, full curve]

Compound	Potency
O=C(NCC1CCCO1)c1ccc2c3n(nc2c1)-c1ccccc1CO3 (configuration not stated)	inactive
CC1CC2(CCCC2)N(C(=O)c2ccccc2)Cc2ccccc21 (configuration not stated)	inconclusive [inhibitor, partial curve]
Cc1cc(C)c2cc(CN(Cc3nnnn3C3CCCCC3)CC3CCCO3)c(=O)[nH]c2c1 (configuration not stated)	inactive
CCCCCCCCN1C(=O)[C@H](CC(=O)N2CCN(C(=O)OCC)CC2)C[C@@]2(C(=O)OC)CCCCC=C12	inconclusive [inhibitor, partial curve]
CC(=O)C[C@@H]1SC[C@H](c2ccccc2)N1S(=O)(=O)c1ccc(C)cc1	inconclusive [inhibitor, partial curve]
Brc1ccc(-c2csc(-c3c[nH]c4ccccc34)n2)cc1	inactive
CC(=O)Nc1ccc(C(=O)COC(=O)c2cccs2)c(F)c1	inconclusive [inhibitor, partial curve]
COc1ccc(S(=O)(=O)Nc2cc3c4c(c2)C(C)C(=O)N4CCC3)cc1OC (configuration not stated)	inconclusive [inhibitor, partial curve]
CN(C)C(=O)CSc1nnc(C23CC4CC(CC(C4)C2)C3)o1	inactive
O=C(O)c1ccccc1C(=O)Nc1ccc(Oc2ccc3ccccc3c2)cc1	inconclusive [inhibitor, partial curve, poor fit]
CCN(C(=O)COC(=O)c1ccc(C=O)cc1)c1c(N)n(Cc2ccccc2)c(=O)[nH]c1=O	inactive
Cc1ccc2c(c1)C(c1ccccc1)N(C(=O)c1c(F)cccc1Cl)CC(=O)N2 (configuration not stated)	inconclusive [inhibitor, partial curve, poor fit]
CCCCCC(=O)Nc1cccc(C2=NOC3(C2)C[C@@H](C(N)=O)N(C(=O)CC(c2ccccc2)c2ccccc2)C3)c1 (some centres not stated)	inconclusive [inhibitor, partial curve]
COCc1cc(C)nc(SCc2ccc(Br)cc2)c1C#N	inactive
Cc1ccc(C)c(NC(=O)CN(C)C(=O)c2cccc(S(=O)(=O)N3CCN(Cc4ccccc4)CC3)c2)c1	inconclusive [inhibitor, single point]
Nc1c(C(=O)O)ccc2c1C(=O)c1ccccc1C2=O	inconclusive [inhibitor, partial curve]
CCCN(CC1CC1)c1cc2c(c3c1ccn3C)C1CCC2O1 (configuration not stated)	inconclusive [inhibitor, full curve, poor fit]
Cn1nc(C(C)(C)C)cc1C(=O)N1CCCCC1c1cc(C(=O)NCc2ccc(F)cc2)no1 (configuration not stated)	inconclusive [inhibitor, single point]
CCN(CC(=O)NC(C)C)C(=O)[C@@H](NC(=O)c1ccco1)C(C)C	inconclusive [inhibitor, single point]
COCCN(C(=O)/C=C/c1cccc([N+](=O)[O-])c1)c1c(N)n(Cc2ccccc2)c(=O)[nH]c1=O	inconclusive [inhibitor, single point]
O=C(CNC(=O)c1ccco1)NCC(=O)OCc1ccccc1Br	inconclusive [inhibitor, single point]

From PubChem BioAssay AID720708 (National Center for Advancing Translational Sciences (NCATS), 2013)
